Results from a collection of fitness landscapes (doi:10.1016/j.celrep.2020.107928).
Whole data set: some 81,000 sequences, median “one-hybrid fitness for binding parS DNA” near -0.17, cut for the highest 2% near 0.51. The list shows a part of the results.

B1: Caulobacter ParB omega fusion; a variant is named by its letters at X, in order, B8GW30 (parent)
chain: MESVVVGEPGMSEGRRGLGRGLSALLGEVDAAPAQAPGEQLGGSREAPIEILQRNPDQPRRTFREEDLEDLSNSIREKGVLQPILVRPSPDTAGEYQIVAGERAWRAAQRAGLKTVPIMVRELDDLAVLEIGIIENVQRADLNVLEEALSYKVLMEKFERTQENIAQTIGKSXSHVANXMRLLXLPDEVQSYLVSGELTAXHARAIAAAADPVALAKQIIEGGLSVRETEALARKAPNLSAGKSKGGRPPRVKDTDTQALESDLSSVLGLDVSIDHRGSTGTLTITYATLEQLDDLCNRLTRGI

Variants of: B1
Assay: one-hybrid fitness for binding parS DNA (scaled: cognate 1, non-cognate 0); higher = stronger binding
Details: with parS DNA site
Procedure, shortened: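 In E. coli USO, a HIS3 reporter with its site placed 19 bp from the promoter was used to select Caulobacter ParB variants randomised at four specificity codons. Growth lasted 48 hours at 37°C on histidine-free M9 containing 0.1 mM IPTG and 5 mM 3-AT. Fitness was taken as the log change in variant-to-wild-type read ratio from Illumina sequencing of pre- and post-selection plasmids, rescaled between the non-cognate and cognate sites.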

Variant	one-hybrid fitness for binding parS DNA
GVMG	≤ 0.2
GFCL	≤ 0.2
VHCR	≤ 0.2
VVYN	≤ 0.2
QCQC	≤ 0.2
VRYT	≤ 0.2
VSAC	≤ 0.2
DLKH	≤ 0.2
SYLV	≤ 0.2
SSWC	≤ 0.2
VDRT	≤ 0.2
QYLR	≤ 0.2
KILT	≤ 0.2
RLGG	0.995
MMAM	≤ 0.2
QMWY	≤ 0.2
SLTW	≤ 0.2
NTLC	≤ 0.2
CCAR	≤ 0.2
RGRV	≤ 0.2
ERAR	≤ 0.2
HPLL	≤ 0.2
QQRM	≤ 0.2
PGPD	≤ 0.2
VPKQ	≤ 0.2

Variant	one-hybrid fitness for binding parS DNA
RETV	≤ 0.2
IRSY	≤ 0.2
VVRV	≤ 0.2
MPQL	≤ 0.2
ERSW	≤ 0.2
VMDC	≤ 0.2
DKPV	≤ 0.2
HDWL	≤ 0.2
KWAD	≤ 0.2
KTSR	≤ 0.2
MPSR	≤ 0.2
PLGN	≤ 0.2
NMLA	≤ 0.2
PMRS	≤ 0.2
QSMH	≤ 0.2
HGAW	≤ 0.2
TYVA	≤ 0.2
GNWS	≤ 0.2
PGNR	≤ 0.2
QRNM	≤ 0.2
WMPV	≤ 0.2
WQDT	≤ 0.2
HPHT	≤ 0.2
PVYL	≤ 0.2
TGYM	≤ 0.2

Variant	one-hybrid fitness for binding parS DNA
LTSV	≤ 0.2
FYHG	≤ 0.2
CPPR	≤ 0.2
GRRR	≤ 0.2
WRLH	≤ 0.2
NMEG	≤ 0.2
VHCT	≤ 0.2
WSNS	≤ 0.2
NWWT	≤ 0.2
PKNL	≤ 0.2
IKHT	≤ 0.2
CATV	≤ 0.2
MNQA	0.233
DPIK	≤ 0.2
FYPS	≤ 0.2
HDQL	≤ 0.2
KFKF	≤ 0.2
CVMK	≤ 0.2
AQKL	≤ 0.2
VPDI	≤ 0.2
LNSP	≤ 0.2
AGKW	≤ 0.2
VRTI	≤ 0.2
RHTA	0.516
PIAC	≤ 0.2

Variant	one-hybrid fitness for binding parS DNA
QKSG	≤ 0.2
RVLL	≤ 0.2
PYPW	≤ 0.2
LMCM	≤ 0.2
DYHS	≤ 0.2
RTAH	0.21
YDPG	≤ 0.2
NHQF	≤ 0.2
SRQE	≤ 0.2
QVAY	≤ 0.2
IIII	≤ 0.2
SDHG	≤ 0.2
GCRL	≤ 0.2
TTET	≤ 0.2
LMAT	≤ 0.2
PWNK	≤ 0.2
PFTR	≤ 0.2
NHAP	0.214
YEKF	≤ 0.2
YTNF	≤ 0.2
NSVC	≤ 0.2
SKHS	≤ 0.2
PKRY	≤ 0.2
EISF	≤ 0.2
FDHT	≤ 0.2

Variant	one-hybrid fitness for binding parS DNA
LMPW	≤ 0.2
IPIA	≤ 0.2
RSYH	≤ 0.2
NSPL	≤ 0.2
MLRW	≤ 0.2
MLTG	≤ 0.2
LDCS	≤ 0.2
TNIE	≤ 0.2
TLNP	≤ 0.2
VSFQ	≤ 0.2
KVRE	≤ 0.2
QNCL	≤ 0.2
GPTE	≤ 0.2
QWPI	≤ 0.2
WNVS	≤ 0.2
RHQP	≤ 0.2
GKVC	≤ 0.2
SEAS	≤ 0.2
LNQP	≤ 0.2
MWDV	≤ 0.2
QKCT	≤ 0.2
QLYC	≤ 0.2
SDTE	≤ 0.2
YGTT	≤ 0.2
ATAK	≤ 0.2

Variant	one-hybrid fitness for binding parS DNA
TSDN	≤ 0.2
RVVQ	≤ 0.2
MNLV	≤ 0.2
TADW	≤ 0.2
FHPG	≤ 0.2
EEHA	≤ 0.2
HYGC	≤ 0.2
HGRS	≤ 0.2
MEKR	≤ 0.2
IEAG	≤ 0.2
LWSR	≤ 0.2
RGFS	0.584
KTRQ	≤ 0.2
ITSL	≤ 0.2
NMGE	≤ 0.2
QKTP	≤ 0.2
GLPL	≤ 0.2
LCEG	≤ 0.2
TFLT	≤ 0.2
FTPL	≤ 0.2
MRCS	≤ 0.2
RYML	≤ 0.2
IICL	≤ 0.2
TMWE	≤ 0.2
PSWS	≤ 0.2

Variant	one-hybrid fitness for binding parS DNA
QYQW	≤ 0.2
AGFC	≤ 0.2
SFCW	≤ 0.2
RLAS	1
AVKK	≤ 0.2
QRIS	≤ 0.2
PTTD	≤ 0.2
QPAN	≤ 0.2
PYDM	≤ 0.2
SISV	≤ 0.2
ACIY	≤ 0.2
ALYR	≤ 0.2
RSGN	0.46
DSAD	≤ 0.2
TKTY	≤ 0.2
CVGC	≤ 0.2
PDEM	≤ 0.2
KPRH	≤ 0.2
GATW	≤ 0.2
QYMH	≤ 0.2
FEKS	≤ 0.2
THMK	≤ 0.2
VPPE	≤ 0.2
DKNH	≤ 0.2
PSAT	≤ 0.2

Variant	one-hybrid fitness for binding parS DNA
WSHY	≤ 0.2
VVRE	≤ 0.2
GVPP	≤ 0.2
HAHS	≤ 0.2
RKWR	≤ 0.2
HSYR	≤ 0.2
RNPY	≤ 0.2
EKTH	≤ 0.2
CDSR	≤ 0.2
QEPG	≤ 0.2
PASS	≤ 0.2
PGET	≤ 0.2
KNLS	≤ 0.2
VAYS	≤ 0.2
DFPR	≤ 0.2
KTCG	≤ 0.2
RVVD	≤ 0.2
TTKV	≤ 0.2
LCEE	≤ 0.2
PCVN	≤ 0.2
